Patent US20240383985A1 (published 2024)

How the values were obtained:
CS1-Fc = biological target: T1, CS1-Fc (UniProt Q9NQ25 23-226); test: ELISA
T1 chain: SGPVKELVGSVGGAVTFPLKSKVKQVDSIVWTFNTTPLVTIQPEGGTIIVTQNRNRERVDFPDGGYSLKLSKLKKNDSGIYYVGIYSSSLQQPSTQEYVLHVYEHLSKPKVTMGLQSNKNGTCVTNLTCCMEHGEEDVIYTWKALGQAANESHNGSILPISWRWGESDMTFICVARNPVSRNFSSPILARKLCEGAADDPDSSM

[1] = biological target: T2, CD38 naturally expressed on Daudi cells (human, UniProt P28907 1-300); test: FACS; FIG. 23
[2] = biological target: T2, CD38 naturally expressed on Daudi cells; test: FACS; FIG. 24

- EC50 (CS1-Fc): ~4 µg/mL
- EC50 [1]: ~5.35 nM
- EC50 [2]: 0.833 nM
B1: QP33123313 (protein)
chain 1: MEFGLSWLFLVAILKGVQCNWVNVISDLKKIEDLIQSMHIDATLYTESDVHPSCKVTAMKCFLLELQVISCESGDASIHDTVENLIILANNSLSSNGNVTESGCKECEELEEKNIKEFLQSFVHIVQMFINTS
chain 2: MEFGLSWLFLVAILKGVQCITCPPPMSVEHADIWVKSYSLYSRERYICNSGFKRKAGTCSLTECVLNKATNVAHWTTPSLKCIRDPALVHQRSGGSGGGGSGGGSGGGGSLQ[sequence of human IgG1 Fc with changes omitted]
